Experimental data from the supplement of paper PMC9151546.
Repeats are few or missing, and single values can be far off.

How the values were obtained:
CHO-K1 [1] = assay: micronucleus frequency (% of nucleated events); higher = more micronuclei (genotoxic)
CHO-K1 [2] = assay: hypodiploid nuclei frequency (% of nucleated events); higher = more hypodiploid events (aneugenic)
CHO-K1 [3] = assay: relative survival (nuclei to bead ratio vs DMSO control) (% of vehicle control); higher = more surviving cells
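Wherever hypodiploid nuclei frequency (% of nucleated events) is given: hypodiploid nuclei gated on a flow cytometer with 488 nm excitation after SYTOX Green staining, cultures at 37 °C, positive controls vinblastine without S9 and cyclophosphamide with S9.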
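Wherever micronucleus frequency (% of nucleated events) is given: cells lysed with nuclei stained by SYTOX Green, then micronucleus-gated events counted against nucleated events by flow cytometry with 488 nm excitation.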
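Wherever relative survival (nuclei to bead ratio vs DMSO control) is given: Lysed-cell nuclei stained with SYTOX Green and counted against counting beads by flow cytometry at 488 nm excitation, with vinblastine (no S9) and cyclophosphamide (plus S9) as positive controls.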

O=C1OC(c2ccc(O)cc2)(c2ccc(O)cc2)c2ccccc21 [Phenolphthalein]
Conditions	hypodiploid nuclei frequency, CHO-K1 [2] [%]	micronucleus frequency, CHO-K1 [1] [%]	relative survival, CHO-K1 [3]
concentration: 4.5 (µM), S9 metabolic activation: with S9, exposure time: 3-4 hours	0.24	1.04	126
concentration: 4.5 (µM), S9 metabolic activation: without S9, exposure time: 24 hours	0.9	1.22	120
concentration: 5.63 (µM), S9 metabolic activation: with S9, exposure time: 3-4 hours	0.1	0.78	119
concentration: 5.63 (µM), S9 metabolic activation: without S9, exposure time: 24 hours	0.72	0.96	106
concentration: 7.04 (µM), S9 metabolic activation: with S9, exposure time: 3-4 hours	0.3	1	115
concentration: 7.04 (µM), S9 metabolic activation: without S9, exposure time: 24 hours	0.74	0.96	112
concentration: 8.8 (µM), S9 metabolic activation: with S9, exposure time: 3-4 hours	0.24	1.16	134
concentration: 8.8 (µM), S9 metabolic activation: without S9, exposure time: 24 hours	1	1.14	112
concentration: 11 (µM), S9 metabolic activation: with S9, exposure time: 3-4 hours	0.18	1.32	108
concentration: 11 (µM), S9 metabolic activation: without S9, exposure time: 24 hours	0.74	1.24	117
concentration: 13.7 (µM), S9 metabolic activation: with S9, exposure time: 3-4 hours	0.14	0.84	163
concentration: 13.7 (µM), S9 metabolic activation: without S9, exposure time: 24 hours	0.46	1.18	100
concentration: 17.2 (µM), S9 metabolic activation: with S9, exposure time: 3-4 hours	0.22	1.36	128
concentration: 17.2 (µM), S9 metabolic activation: without S9, exposure time: 24 hours	0.68	1.1	116
concentration: 21.5 (µM), S9 metabolic activation: with S9, exposure time: 3-4 hours	0.2	1.46	122
concentration: 21.5 (µM), S9 metabolic activation: without S9, exposure time: 24 hours	0.68	0.94	84.3
concentration: 26.8 (µM), S9 metabolic activation: with S9, exposure time: 3-4 hours	0.34	1.22	138
concentration: 26.8 (µM), S9 metabolic activation: without S9, exposure time: 24 hours	1.3	1.26	81.4
concentration: 33.6 (µM), S9 metabolic activation: with S9, exposure time: 3-4 hours	0.42	1.2	150
concentration: 33.6 (µM), S9 metabolic activation: without S9, exposure time: 24 hours	1.98	2.32	75.4
concentration: 41.9 (µM), S9 metabolic activation: with S9, exposure time: 3-4 hours	0.38	1.42	118
concentration: 41.9 (µM), S9 metabolic activation: without S9, exposure time: 24 hours	6.24	4.86	88.1
concentration: 52.4 (µM), S9 metabolic activation: with S9, exposure time: 3-4 hours	0.64	1.36	105
concentration: 52.4 (µM), S9 metabolic activation: without S9, exposure time: 24 hours	20	14.1	65.5
concentration: 65.5 (µM), S9 metabolic activation: with S9, exposure time: 3-4 hours	0.4	1.1	95.3
concentration: 65.5 (µM), S9 metabolic activation: without S9, exposure time: 24 hours	–	–	38.8
concentration: 81.9 (µM), S9 metabolic activation: with S9, exposure time: 3-4 hours	0.36	1.46	90.7
concentration: 81.9 (µM), S9 metabolic activation: without S9, exposure time: 24 hours	–	–	31.5
concentration: 102 (µM), S9 metabolic activation: with S9, exposure time: 3-4 hours	0.48	1.68	75.3
concentration: 102 (µM), S9 metabolic activation: without S9, exposure time: 24 hours	–	–	37
concentration: 128 (µM), S9 metabolic activation: with S9, exposure time: 3-4 hours	0.34	1.46	84.7
concentration: 128 (µM), S9 metabolic activation: without S9, exposure time: 24 hours	–	–	38.3
concentration: 160 (µM), S9 metabolic activation: with S9, exposure time: 3-4 hours	0.76	3.48	57
concentration: 160 (µM), S9 metabolic activation: without S9, exposure time: 24 hours	–	–	35.5
concentration: 200 (µM), S9 metabolic activation: with S9, exposure time: 3-4 hours	–	–	30.1
concentration: 200 (µM), S9 metabolic activation: without S9, exposure time: 24 hours	–	–	38.8

Oc1cccc(O)c1 [Resorcinol]
Conditions	hypodiploid nuclei frequency, CHO-K1 [2] [%]	micronucleus frequency, CHO-K1 [1] [%]	relative survival, CHO-K1 [3]
concentration: 4.5 (µM), S9 metabolic activation: with S9, exposure time: 3-4 hours	0.16	1.5	63.6
concentration: 4.5 (µM), S9 metabolic activation: without S9, exposure time: 24 hours	0.44	1.36	118
concentration: 5.63 (µM), S9 metabolic activation: with S9, exposure time: 3-4 hours	0.2	1.4	71.8
concentration: 5.63 (µM), S9 metabolic activation: without S9, exposure time: 24 hours	0.54	1.44	90.6
concentration: 7.04 (µM), S9 metabolic activation: with S9, exposure time: 3-4 hours	0.28	1.48	102
concentration: 7.04 (µM), S9 metabolic activation: without S9, exposure time: 24 hours	0.52	1.22	97.6
concentration: 8.8 (µM), S9 metabolic activation: with S9, exposure time: 3-4 hours	0.22	1.08	101
concentration: 8.8 (µM), S9 metabolic activation: without S9, exposure time: 24 hours	0.58	0.9	107
concentration: 11 (µM), S9 metabolic activation: with S9, exposure time: 3-4 hours	0.26	1.38	82.8
concentration: 11 (µM), S9 metabolic activation: without S9, exposure time: 24 hours	0.7	1.64	88.2
concentration: 13.7 (µM), S9 metabolic activation: with S9, exposure time: 3-4 hours	0.34	1.48	91.7
concentration: 13.7 (µM), S9 metabolic activation: without S9, exposure time: 24 hours	0.86	2.76	85.1
concentration: 17.2 (µM), S9 metabolic activation: with S9, exposure time: 3-4 hours	0.2	2.02	110
concentration: 17.2 (µM), S9 metabolic activation: without S9, exposure time: 24 hours	0.9	1.98	81.2
concentration: 21.5 (µM), S9 metabolic activation: with S9, exposure time: 3-4 hours	0.16	1.92	122
concentration: 21.5 (µM), S9 metabolic activation: without S9, exposure time: 24 hours	0.76	2.18	86.5
concentration: 26.8 (µM), S9 metabolic activation: with S9, exposure time: 3-4 hours	0.44	2	94.5
concentration: 26.8 (µM), S9 metabolic activation: without S9, exposure time: 24 hours	0.56	2	72.7
concentration: 33.6 (µM), S9 metabolic activation: with S9, exposure time: 3-4 hours	0.2	1.52	83.7
concentration: 33.6 (µM), S9 metabolic activation: without S9, exposure time: 24 hours	0.5	2.82	73.5
concentration: 41.9 (µM), S9 metabolic activation: with S9, exposure time: 3-4 hours	0.32	1.58	53
concentration: 41.9 (µM), S9 metabolic activation: without S9, exposure time: 24 hours	0.36	1.74	81.9
concentration: 52.4 (µM), S9 metabolic activation: with S9, exposure time: 3-4 hours	0.16	0.96	60.6
concentration: 52.4 (µM), S9 metabolic activation: without S9, exposure time: 24 hours	0.58	2.1	58.7
concentration: 65.5 (µM), S9 metabolic activation: with S9, exposure time: 3-4 hours	0.24	1.02	69.2
concentration: 65.5 (µM), S9 metabolic activation: without S9, exposure time: 24 hours	0.44	1.42	65.7
concentration: 81.9 (µM), S9 metabolic activation: with S9, exposure time: 3-4 hours	0.32	1.4	62
concentration: 81.9 (µM), S9 metabolic activation: without S9, exposure time: 24 hours	0.58	1.08	53.4
concentration: 102 (µM), S9 metabolic activation: with S9, exposure time: 3-4 hours	0.34	1.4	61.8
concentration: 102 (µM), S9 metabolic activation: without S9, exposure time: 24 hours	0.44	1.9	56.7
concentration: 128 (µM), S9 metabolic activation: with S9, exposure time: 3-4 hours	0.38	1.66	77
concentration: 128 (µM), S9 metabolic activation: without S9, exposure time: 24 hours	0.6	2.56	56.6
concentration: 160 (µM), S9 metabolic activation: with S9, exposure time: 3-4 hours	0.32	1.3	81.4
concentration: 160 (µM), S9 metabolic activation: without S9, exposure time: 24 hours	1.04	2.6	68.6
concentration: 200 (µM), S9 metabolic activation: with S9, exposure time: 3-4 hours	0.16	1.82	84.1
concentration: 200 (µM), S9 metabolic activation: without S9, exposure time: 24 hours	0.94	2.66	72.7
